In patent US20110217324A1, “INHIBITORS OF ANTIGEN PRESENTATION BY MHC CLASS II MOLECULES AND METHODS OF USE THEREOF” (priority 2007, published 2011):
Not every detail of the peptide structures is certain; ends, links or a residue may be inferred. At least one structure is not confirmed: it was looked up by name or label, or the drawing left a doubt. Square brackets hold non-standard residues; d marks the D form. Peptide text beside a SMILES is read from it. Gly(1-amidinopiperidin-4-yl) = N=C(N)N1CCC([C@H](N)C(=O)O)CC1; Phe(4-guanidino) = N=C(N)Nc1ccc(C[C@H](N)C(=O)O)cc1; Ala(4-thiazolyl) = N[C@@H](Cc1cscn1)C(=O)O; Pro(3,4-benzo) = O=C(O)[C@H]1NCc2ccccc21; Dab(CONH2) = NC(=O)NCC[C@H](N)C(=O)O; Tiq1c(1S) = O=C(O)[C@H]1NCCc2ccccc21; Bta = N[C@@H](Cc1csc2ccccc12)C(=O)O; Gly(cPent) = N[C@H](C(=O)O)C1CCCC1; Igl = N[C@H](C(=O)O)C1Cc2ccccc2C1; hArg = N=C(N)NCCCC[C@H](N)C(=O)O; Tic = O=C(O)[C@@H]1Cc2ccccc2CN1; Agb = N=C(N)NCC[C@H](N)C(=O)O; Chg = N[C@H](C(=O)O)C1CCCCC1; Pip = O=C(O)[C@@H]1CCCCN1; Aze = O=C(O)[C@@H]1CCN1; βAla = NCCC(=O)O

Biological target: T1, MHC DR2 (DRB1*1501/DRA*0101) (Homo sapiens, UniProt P01903+P01911)
T1 construct: endogenous in cells; host or cells: EBV homozygous (B lymphoblastoid) cell lines
Test: HLA II Binding Assay (competition with biotinylated reference peptide)
Settings: purified HLA-DR, biotinylated reference compound for DRB1*1501, 37° C. 24 h to 72 h; read-out: Inhibition of peptide binding IC50 (against MHC DR2 (DRB1*1501/DRA*0101))
Experimental: EBV homozygous cell lines are used as sources of human HLA class II molecules. […] The supernatant from lysed cells after centrifugation (100,000 g for 1 h) is applied to Sepharose 4B and protein A-Sepharose 4B columns and then to the specific antibody column. […] Fractions are immediately neutralized to pH 7 with 2 mM Tris-HCl (pH 6.8) and extensively dialyzed against 1 mM n-dodecyl β-D-maltoside, 150 mM NaCl, 10 mM phosphate (pH 7) buffer.
Samples (100 μl per well) are incubated in 96-wells polypropylene plates at 37° C. for 24 h to 72 h. After neutralization with 50 μl of 450 mM Tris HCl pH 7.5, 0.003% thimerosal, 0.3% BSA, 1 mM n-dodecyl β-D-maltoside buffer, samples are applied to 96-well maxisorp ELISA plates previously coated with 10 μg/ml L243 Mab and saturated with 100 mM Tris HCl pH=7.5, 0.3% BSA, and 0.003% thimerosal buffer. Samples are allowed to bind to the antibody-coated plates for 2 h at room temperature. Bound biotinylated compound is detected by incubating streptavidin-alkaline phosphatase conjugate, and after washings, by the addition of 4-methylumbelliferyl phosphate substrate. […] Maximal binding is determined by incubating the biotinylated peptide with the MHC class II molecule in the absence of competitor. Binding specificity is assessed by adding an excess of non-biotinylated peptide.

With `CC(C)[C@H](NC(=O)CCN)C(=O)N[C@H](C(=O)N[C@@H](Cc1cscn1)C(=O)N1Cc2ccccc2C[C@H]1C(=O)N[C@@H](Cc1ccccc1)C(N)=O)C1CCCCC1` [(NH2-Beta Ala)V(Chg)(4-thiaz Ala)(Tic)F] (H-[βAla]V[Chg][Ala(4-thiazolyl)][Tic]F-NH2) the IC50 was 10 to 100 nM.
Work on `CC(=O)N[C@H](C(=O)N[C@@H](Cc1ccc(NC(=N)N)cc1)C(=O)N1Cc2ccccc2C[C@H]1C(=O)N[C@@H](Cc1ccccc1)C(=O)N1CCCC[C@H]1C(N)=O)C1CCCCC1` [Ac(Chg)(4-Gaun-Phe)(Tic)F(homo Pro)] (Ac-[Chg][Phe(4-guanidino)][Tic]F[Pip]-NH2) yielded an IC50 of 100 to 1000 nM.
For `CC(=O)N[C@H](C(=O)N[C@@H](CCCCNC(=N)N)C(=O)N1Cc2ccccc2C[C@H]1C(=O)N[C@@H](Cc1ccccc1)C(=O)N1CCCC[C@H]1C(N)=O)C1CCCCC1` [Ac(Chg)(homo R)(Tic)F(homo Pro)] (Ac-[Chg][hArg][Tic]F[Pip]-NH2), the IC50 was 100 to 1000 nM.
Molecule `CC(=O)N[C@H](C(=O)N[C@@H](CCNC(=N)N)C(=O)N1Cc2ccccc2C[C@H]1C(=O)N[C@@H](Cc1ccccc1)C(=O)N1CCCC[C@H]1C(N)=O)C1CCCCC1` [Ac(Chg)(nor-R)(Tic)F(homo Pro)] (Ac-[Chg][Agb][Tic]F[Pip]-NH2) has an IC50 of 10 to 100 nM.
In the case of `CC(=O)N[C@H](C(=O)N[C@@H](CCCNC(=N)N)C(=O)N1Cc2ccccc2[C@H]1C(=O)N[C@@H](Cc1ccccc1)C(=O)N1CCCC[C@H]1C(N)=O)C1CCCCC1` [Ac(Chg)R(Disc)F(homo Pro)] (Ac-[Chg]R[Pro(3,4-benzo)]F[Pip]-NH2; N-terminus and C-terminus assumed), the IC50 is reported as 100 to 1000 nM.
`CC(=O)N[C@H](C(=O)N[C@@H](CCCNC(=N)N)C(=O)N1Cc2ccccc2C[C@H]1C(=O)N[C@@H](Cc1csc2ccccc12)C(N)=O)C1CCCCC1` [Ac(Chg)R(Tic)-(3′-BnThienyl Ala)] (Ac-[Chg]R[Tic][Bta]-NH2) gave an IC50 of 10 to 100 nM.
`CC(=O)N[C@H](C(=O)N[C@@H](CCCNC(=N)N)C(=O)N1Cc2ccccc2C[C@H]1C(=O)N[C@@H](Cc1ccccc1)C(=O)N1CC[C@H]1C(N)=O)C1CCCCC1` [Ac(Chg)R(Tic)F(2-azetidine)] (Ac-[Chg]R[Tic]F[Aze]-NH2) gave an IC50 of 1 to 10 nM.
`CC(=O)N[C@H](C(=O)N[C@@H](CCCNC(=N)N)C(=O)N1CCc2ccccc2[C@H]1C(=O)N[C@@H](Cc1ccccc1)C(=O)N1CCCC[C@H]1C(N)=O)C1CCCCC1` [Ac(Chg)R(Tiq)F(homo Pro)] (Ac-[Chg]R[Tiq1c(1S)]F[Pip]-NH2) was tested, and the IC50 was 100 to 1000 nM.
`CC(=O)N[C@H](C(=O)N[C@@H](CCCNC(=N)N)C(=O)N1Cc2ccccc2C[C@H]1C(=O)N[C@@H](Cc1ccccc1)C(=O)N1CC[C@H]1C(N)=O)C1CCCC1` [Ac(Cpg)R(Tic)F(2-azetidine)] (Ac-[Gly(cPent)]R[Tic]F[Aze]-NH2) gave an IC50 of 1 to 10 nM.
Molecule `CC(=O)N[C@H](C(=O)N[C@H](C(=O)N[C@H](C(=O)N1Cc2ccccc2C[C@H]1C(=O)N[C@@H](Cc1ccccc1)C(N)=O)C1CCN(C(=N)N)CC1)C1CCCCC1)C(C)C` [AcV(Chg)(GuanPipG)(Tic)F] (Ac-V[Chg][Gly(1-amidinopiperidin-4-yl)][Tic]F-NH2) has an IC50 of 1 to 10 nM.
Molecule `CC(=O)N[C@H](C(=O)N[C@H](C(=O)N[C@@H](CCNC(N)=O)C(=O)N1Cc2ccccc2C[C@H]1C(=O)N[C@@H](Cc1ccccc1)C(N)=O)C1CCCCC1)C(C)C` [AcV(Chg)(nor Cit)(Tic)F] (Ac-V[Chg][Dab(CONH2)][Tic]F-NH2) has an IC50 of 1 to 10 nM.
Molecule `CC(=O)N[C@H](C(=O)N[C@H](C(=O)N[C@@H](CCNC(=N)N)C(=O)N1Cc2ccccc2C[C@H]1C(=O)N[C@@H](Cc1ccccc1)C(N)=O)C1CCCCC1)C(C)C` [AcV(Chg)(nor-Arg)(Tic)F] (Ac-V[Chg][Agb][Tic]F-NH2) has an IC50 of 1 to 10 nM.
`CC(=O)N[C@H](C(=O)N[C@H](C(=O)N[C@@H](CCCNC(=N)N)C(=O)N1Cc2ccccc2C[C@H]1C(=O)N[C@@H](Cc1csc2ccccc12)C(N)=O)C1CCCCC1)C(C)C` [AcV(Chg)R(Tic)-(3′-BTA)] (Ac-V[Chg]R[Tic][Bta]-NH2) was tested, and the IC50 was 1 to 10 nM.
Work on `CC(=O)N[C@H](C(=O)N[C@H](C(=O)N[C@@H](CCCNC(=N)N)C(=O)N1Cc2ccccc2C[C@H]1C(=O)N[C@@H](Cc1ccccc1)C(=O)O)C1Cc2ccccc2C1)C(C)C` [AcV(Indgly)R(Tic)F-COOH] (Ac-V[Igl]R[Tic]F-OH) yielded an IC50 of 100 to 1000 nM.
